± gives the standard deviation of the averaged measurements. This is one part of the list.
Each sequence was assayed on PfAP2-G AP2 domain (GST-tagged) (assay: gcPBM binding intensity (ln(normalized median fluorescence intensity)); higher = stronger DNA binding).
Procedure, shortened: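 GST-tagged P. falciparum DNA-binding domains produced in E. coli were incubated for 1 h on an Agilent 4 × 180k array of primer-extended double-stranded 36-bp intergenic genomic probes with negative controls. Binding intensity is the highest Masliner-normalised natural-log median intensity across replicate spots of either probe orientation, with bound protein detected by Alexa488 anti-GST antibody at 488 nm.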

Sequence | gcPBM binding intensity (ln)
TTTTTTTTTTTTTTTGCACACTTGATTTGAGCTTAT [CACACA_site4042] | 9.87 ± 0.41
AAAATAAAAATACACATTTTTTTTTTTTTTTTTTTT [TGCATGCA_negctrl_site515] | 10.6 ± 0.18
TTTTTTTTTGTTTACACACCCAAATCACATACATAT [CACACA_site4052] | 10.4 ± 0.37
ATGATTTTTTCTGTATGTACATAAAAATAAAATTCT [XGTACX_site5698] | 11.3 ± 0.8
CATTAGGTCTTTTGTACATGCAAGTGTGTGCGTAAA [TGCATGCA_site255] | 11.1 ± 0.64
TAAATAATTTATAAGTGTACTATTATTGCACGAATA [XGTACX_site7715] | 11.3 ± 1.1
AAAAAAAACAGACACACACACATAAATATATATAAA [CACACA_site148] | 10.03 ± 0.085
TATTAAGAAGAAAATTCACACATTTGTACCTCTCTT [CACACA_site4822] | 11 ± 0.76
CAGCTCTTAAAAATTACACACATATACGCATATATA [CACACA_site3267] | 10 ± 0.15
TTTTCCTTTTTGGAATGTACACATATATATTAAATG [XGTACX_site4700] | 11.4 ± 0.93
AAATATAATATATGCACACATACATACATATATATA [CACACA_site104] | 10.1 ± 0.17
AAGAATAATAACAAATGTACTTATATAAAGTATTAT [XGTACX_site2336] | 11.2 ± 0.86
TAATTAAATATTTTCCTACAATTAATAAGAAAAGGA [XGTACX_negctrl_site565] | 9.86 ± 0.15
TTACAAAAATGTGGTTGTACACAAACAAAAAAAATA [XGTACX_site8506] | 11.5 ± 0.96
GAAAATAGCTAAAATACACACAATTAAAAGTTATTA [CACACA_site7614] | 9.72 ± 0.11
TATAAATAGATATATACACACATGAAAATAAATAAA [CACACA_site7228] | 10 ± 0.13
TATAATATAATATATGCACACAAATATGTATATATG [CACACA_site8664] | 10.1 ± 0.26
AACTATATATAACTAGTGCAAAGACAATATTTTAAA | 10.025 ± 0.007
AAAATTTAATATAATGCACACATAAAAAAAAAAAAT [CACACA_site8425] | 10.1 ± 0.25
TTCTTTAAAATAAATTGTACTAACATATATATATAT [XGTACX_site6045] | 11.1 ± 0.74
TACAGTTCAATGAAGGTGCAATTAATATATAAAATA | 10.1 ± 0.16
ATAATATAATACGAAGGTACACATTTTCTTAATATA [XGTACX_site7947] | 11 ± 0.64

Sequence | gcPBM binding intensity (ln)
TTATGTACAATTTCTTCTTTCTTTTTTCCTAAAGAC [CACACA_negctrl_site1193] | 11.1 ± 0.57
TTTTTTTTTTTTTTTTGTACACATAATATGAATAAT [XGTACX_site2661] | 11.3 ± 1.1
ATAACATATATATATACACACACATATATATATGAA [CACACA_site7983] | 9.8 ± 0.014
CGTATAAATATACGTGCATGTAACTTTTTCTATATT [TGCATGCA_site981] | 10.3 ± 0.23
CTATTTATTTTTGATGCATGCCAAATATAGAAAAAA [TGCATGCA_site368] | 10.1 ± 0.11
TAGTAGTTATCACTAACATGCAATAATATTATTTAA [TGCATGCA_site161] | 9.66 ± 0.2
TGACTGTAGATATTTTGTACATAACCTAATATATAT [XGTACX_site970] | 10.7 ± 0.43
ATATATTTTTTGAATACACACATATTATAGGTAATA [CACACA_site6709] | 10.2 ± 0.29
TTTTTTTTTCTTTTCAAACACACAATTGGTATATAT [CACACA_site3321] | 10.1 ± 0.24
AAAAAAAAAAAAAACACACACATGCACATCATATTA [CACACA_site4467] | 10.12 ± 0.099
TATGTGTAATATTTTTGTACAGAAAAAAAAAAAAAA [XGTACX_site7075] | 10.8 ± 0.77
TCATTTCACAGACACACACACACAATATATTTCCTT [CACACA_site9295] | 10.3 ± 0.17
ATATTTTTATTAGTAGTGCAATTTAGTGTATATATA [GTGCAC_site9542] | 10.3 ± 0.38
AAAAAAAAAATTAAAACATGCATAAATAAATATATT [TGCATGCA_site866] | 9.41 ± 0.37
TATTAAATTTATCGGAGTACATTTAAATGTATATAC [XGTACX_site7975] | 11.6 ± 1.1
TATATACGCAAACACACACACACATACACCCACATA [CACACA_site1724] | 10.5 ± 0.52
TATTTAAAAAGAAAAAAAAAAAAAAAAATACATATA [CACACA_negctrl_site164] | 9.595 ± 0.049
AAAAAAAAAAAATATACACACTAATATATTTTTTTA [CACACA_site4604] | 9.685 ± 0.092
TATTACTATGTTATAACTTTTTTAAACGTGATCATA [TGCATGCA_negctrl_site128] | 9.93 ± 0.18
TACTTACATTATTTATTTATATAAAAAGTTAATTAT [XGTACX_negctrl_site433] | 9.82 ± 0.14
TGTATAAGTATTAATACACACACAAAATAATAAAAA [CACACA_site9156] | 10.3 ± 0.15
AGTATTCATAAAAATACACACATGGAAAAATAAACT [CACACA_site6796] | 10.22 ± 0.035

Sequence | gcPBM binding intensity (ln)
AAATTAAAATATAATACACACATAAAAAAAAAAAAA [CACACA_site4183] | 9.82 ± 0.38
TATATATTTTTTTTTTGTACTCACAATATATGTATG [XGTACX_site8024] | 11.3 ± 0.84
ATAATTAACAAATACACACACACACCCCCACAAAAA [CACACA_site518] | 11.3 ± 0.77
TGTAATATAAAATTTTGTACTCAAAAATTTATATAT [XGTACX_site3252] | 11.2 ± 1
ACTTATAAAAACATATACCCCATCGCATTTTTTCCA [XGTACX_negctrl_site177] | 10.07 ± 0.028
AATTTTTTATATGTCACACATTTATTATTATTATTA [CACACA_site4198] | 10.01 ± 0.042
ATAAAATTATATTTTGCATGCAGGCCTTTTTCTTAA [TGCATGCA_site1030] | 9.76 ± 0.042
AAAAAAAAAAAAAACACACACATATATATATATATA [CACACA_site1891] | 10.1 ± 0.4
TTTATTAGTAATTATACACACATATAAAATGAATAA [CACACA_site6754] | 9.945 ± 0.078
TATATTTATAGGTACACACACACATATAAATAAATA [CACACA_site6345] | 11.3 ± 0.98
ATAAAATATTTTTGAACATGCAGGTAAAAAATAAAA [TGCATGCA_site1019] | 10.065 ± 0.007
AGAATATTATATTATGCATGCATATAGAAAAATATA [TGCATGCA_site302] | 9.765 ± 0.064
TTCCAAACCTCATTATGGAAAATAAAAAAATAAAAA [XGTACX_negctrl_site17] | 9.76 ± 0.11
TTCCAAAAAGTTATTACACACATATGTGCACATATA [CACACA_site6465] | 10.5 ± 0.42
ATTTTCCATTGTGCTACACACAACGGTTCGCAATAA [CACACA_site2974] | 10.3 ± 0.16
ATCTAATAAAAATACACACACATATGATTTGTGAAT [CACACA_site1867] | 10.1 ± 0.28
TTTAATTTTTTTAATTCACACATTATTCCATCCTTT [CACACA_site5480] | 9.945 ± 0.064
AATAAATAAGCAACATGTACATACAAATATATACAT [XGTACX_site8529] | 11.2 ± 0.87
TTATTCATATTATCATGTACTTATATATATTGTCAT [XGTACX_site2231] | 11.1 ± 0.86
ACTAAAAGATATATAATTTCTTTCTTATTTATTTTT [CACACA_negctrl_site842] | 9.81 ± 0.071
TAAAAAAAATAGTCAAGTACATAAGAAGGGAAGAAA [XGTACX_site8733] | 11 ± 0.59
AAAAAAACATGAAACACACACAAATATTTATTTATA [CACACA_site6967] | 9.81 ± 0.071

Sequence | gcPBM binding intensity (ln)
TGTTTCCAAAAAAAAAAAAAAAAAAAAAAAAAAAAA [CACACA_negctrl_site358] | 9.71 ± 0.38
TTTTGTTTATTATGATTCAAAATGATTTTATCTTTG [TGCATGCA_negctrl_site425] | 9.73 ± 0.3
TATTATATATATAAATGTACTTATTTTAATTCCCCT [XGTACX_site8638] | 11.3 ± 0.88
ATTTTATTTTTTAAAGGTACAGTTACAGCTTATATA [XGTACX_site7513] | 11.1 ± 0.81
GTACATATATACATTACACACGGTTTGATTTAAAAA [CACACA_site3379] | 10.8 ± 0.42
ATATAATTAAAATGCTCACACACATAAAAAAAAATT [CACACA_site2148] | 10.1 ± 0.26
CACATATATATGTGTGCATGTTGTATTATATATTTA [TGCATGCA_site632] | 10.4 ± 0.17
ATAATTACAAAATAAACACACATATAGATTTATATG [CACACA_site6343] | 9.84 ± 0.16
TACATAATACATATAACACACACAATTATACATAAA [CACACA_site9060] | 10.1 ± 0.15
TCTTTTAAAAAAAAAGGAGGAACATAAAAAGTAGAA [XGTACX_negctrl_site272] | 10.4 ± 0.34
AAAAATTTAAGTGGGGGTACATTTTTTTAACACCTT [XGTACX_site1093] | 11.6 ± 0.66
AACAAACACGGACACACACACACACTAGAATGATTA [CACACA_site5364] | 11.3 ± 0.95
AAAAAAAAAAAAATCACACATATGTATTTATATATA [CACACA_site5790] | 9.665 ± 0.049
ATATTTAAATGTAATACATGCAAATTTGAACATTTT [TGCATGCA_site736] | 10.1 ± 0.25
TAATATATTAACATGGGTACATATTATTTCATGTGT [XGTACX_site5985] | 11.1 ± 0.73
AAATAAGAGCGTAGCACACACGCATTTTATAAATGT [CACACA_site741] | 10.1 ± 0.15
TATCATTTTATTATTCTACACACTTATCTATAATTA [CACACA_site7894] | 9.93 ± 0.014
TTTTTTTTTTTTTTTGCATGTTGTTTAATGTATTGT [TGCATGCA_site772] | 9.71 ± 0.37
TTTTACAAAATAAAAATATAGAATACGGTAAATTAT [GTGCAC_negctrl_site40] | 10.02 ± 0.078
TAAAAATGTGGACACACACACATATTTATATTTAAT [CACACA_site6827] | 11.4 ± 0.72
TGTTGATGATATTACACACCCAATGAGAAAAGGAAT [CACACA_site2072] | 10.2 ± 0.17
TTTTTTCCTTTTAATTGTACACAGATATAATATATT [XGTACX_site2230] | 11.3 ± 0.55
